Assay results reported in patent publication US6143493A, “HCMV-specific peptides, agents therefor and the use thereof” (Dade Behring Marburg GmbH, priority 1991, dated 2000).
Not every detail of the peptide structures is certain; ends, links or a residue may be inferred. Where no end group is shown, it is not given here.

What was measured:
CMV IgG-positive sera = assay: ELISA on peptide-coated microtiter plates with HCMV-positive human sera (localization of epitopes); format: binding; conditions: plates coated with 2.5 μg peptide per ml, serum 1:2; for Reactivity (individual reactivities of particularly reactive peptides with the assayed group of CMV IgG-positive sera): Table 3
Experimental: A microtiter plate with 96 wells was coated with a synthesized peptide. To do this, a solution of 2.5 μg of peptide per ml of carbonate buffer was made up and introduced in 100 μl portions into the wells for the coating. The peptides were adsorbed onto the surfaces at 4° C. overnight and, after removal of the peptide solution, the wells were washed several times with washing buffer (50 mM Tris, pH 7.2, 10 mM EDTA, 0.2% Tween 20). Then individual human serum samples in a 1:2 dilution were introduced and incubated at 37° C. for 1 hour. After another washing step, the conjugate antibody specific for human IgG antibodies or human IgM antibodies and labeled with peroxidase was added and the mixture was incubated at room temperature for 0.5 hour. The reaction was subsequently stopped by adding 0.5 M sulfuric acid and extinction of the individual samples was measured at a wavelength of 450/650 nm in a photometer.
To test the immunogenicity, peptides of various length from the complete amino-acid sequence region from 718 to 880 of the HCMV protein pp150 (Tab. 2 and 3) were synthesized as described in Example 1. Subsequently, as in Example 2, the microtiter plates were coated with the synthesized peptides, and the immunological reactivity was assayed. […] The three immunologically reactive peptides have the following sequences: […]

[1] = tested on: monoclonal antibody 87-55/02; assay: Reaction of monoclonal antibody 87-55/02 with peptide-coated ELISA plate; format: binding; conditions: 0.25 μg/well peptide
Source text: It was concluded from the method for selecting the monoclonal antibody that the identified epitope must have a very important structure which is not even destroyed by denaturation of the complete protein. This monoclonal antibody correspondingly reacts both with the synthesized peptide 2.7 (SEQ ID NO:26) and with the recombinant protein XP1 (SEQ ID NO:33) and the pp150 protein of HCMV.

Sequence: DMNPANWPRERAWAL [Peptide 2.7, asp met asn pro ala asn trp pro arg glu arg ala trp ala leu]
- Reactivity (individual reactivities of the synthetic pXP1 segments with the assayed group of CMV IgG-positive sera) (CMV IgG-positive sera; Table 2): 60%
- Reactivity (individual reactivities of particularly reactive peptides with the assayed group of CMV IgG-positive sera) (CMV IgG-positive sera): 60%
- reaction with monoclonal antibody 87-55/02 on peptide-coated ELISA plate [1]: very clearly distinct

Sequence: WPRERAWALKNPHLAYNPFR [Peptide 2.5, trp pro arg glu arg ala trp ala leu lys asn pro his leu ala tyr asn pro phe arg]
- Reactivity (individual reactivities of particularly reactive peptides with the assayed group of CMV IgG-positive sera) (CMV IgG-positive sera): 80%
